Measurements reported in PubChem BioAssay AID686979 (National Center for Advancing Translational Sciences (NCATS), 2013).
Values joined by “and” are separate entries in the source; they are usually repeats but may differ in a detail not shown here. Identical values can stand only once. Hit rate of the full screen: of about 420,000 compounds, about 50,000 (12%) were called active. This list was built around the results that the source calls inconclusive (neither active nor inactive); the mix of calls is not that of the screen. Calls come from the whole dose curve; as a rule, active = well fitted inhibition curve with a large enough effect; inconclusive = small, poorly fitted or top-dose-only effect; inactive = flat fitted curve, though single readings scatter. No potency is given beside an inconclusive call; the fits are too rough. A structure can be active in one record and inactive in another.

assay: qHTS for Inhibitors of human tyrosyl-DNA phosphodiesterase 1 (TDP1): qHTS in cells in presence of CPT; details: chicken DT40 Tdp1-/-;hTDP1 cells + 20 nM CPT, ATP luminescence, 48 h; activity change, negative = growth inhibition: at 46.2 µM (top of the series) unless noted; note: nearly all actives have a fitted effect of over 55% in size
Summary of the method: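 Chicken DT40 Tdp1-/- cells complemented with human TDP1, 400 cells/well, exposed to compounds plus 20 nM camptothecin for at least 48 h at 37 C; viability read as ATP content by CellTiter-Glo luminescence.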
% is set by controls: 0 for no effect and ±100 for the full control effect; potency is the fitted concentration of half-maximal effect; tags give direction and shape of the fitted curve.

| Structure (SMILES) | Potency | activity change, negative = growth inhibition |
| --- | --- | --- |
| COc1ccc2nc(C3CCCCC3)nc(C3CCCCC3)c2c1 | inconclusive [inhibitor, partial curve] |  |
| CCN(C(=O)COC(=O)/C=C/c1ccccc1Cl)c1c(N)n(Cc2ccccc2)c(=O)[nH]c1=O | inconclusive [inhibitor, single point] |  |
| Cc1snc(S(=O)(=O)Cc2c(Cl)cccc2Cl)c1C#N |  | inactive: 3.7% |
| COCCC(=O)Nc1ccc2c(c1)CN(C(=O)CCSC)CC2 |  | inactive: -4.77% |
| CCc1cc(OCCOCCN(C)C)ccc1Cl | inconclusive [inhibitor, single point] |  |
| O=C1Nc2ccccc2C(O)(C(=O)NCc2ccc3c(c2)OCO3)N1c1ccc(Cl)c(Cl)c1 (stereo not given) |  | inactive: -29.1% |
| C/C(=N/NC(=O)c1ccc(C)s1)c1cccc(NC(=O)COc2ccc(Cl)cc2C)c1 |  | inconclusive: -34% [inhibitor] |
| COc1ccc(S(=O)(=O)NCCc2cn3nc(C)c(C)nc3n2)cc1F |  | inactive: 3.17% |
| Cn1nnnc1SCC(=O)N(C1CCCCC1)C1CCS(=O)(=O)C1 (stereo not given) |  | inactive: 7.05% |
| Cc1ccccc1C(=O)N1CCC(C(=O)N2CCN(S(=O)(=O)c3ccccc3F)CC2)CC1 | inconclusive [inhibitor, partial curve] |  |
| CCOC(=O)C1C(=O)Oc2ccc3ccccc3c2C1C1CCOC1=O (stereo not given) | inconclusive [inhibitor, single point] |  |
| Cc1cc2nc(/N=C(\N)NC(=O)C(C)C)nc(C)c2cc1C | inconclusive [inhibitor, single point] |  |
| NC(=O)C1CCN(C(=O)CSc2ncccn2)CC1 |  | inactive: -1.95% |
| CC(C(=O)Nc1ccc(F)cc1Cl)N1CCN(S(=O)(=O)c2cccs2)CC1 (stereo not given) | inconclusive [inhibitor, single point] |  |
| OCC(O)C(O)C(O)C(O)c1nc2ccccc2[nH]1 (stereo not given) |  | inactive: 12.5% |
| CCOc1ccc(C2CC(=O)N(Nc3ccc([N+](=O)[O-])cc3[N+](=O)[O-])C2=O)cc1 (stereo not given) |  | inactive: 11.4% |
| Cc1ccc(CCNC(=O)C2CCN(S(=O)(=O)c3ccc4c(c3)NC(=O)CO4)CC2)cc1 | inconclusive [inhibitor, single point] |  |
| N[C@H](CO)C(=O)O | inconclusive [inhibitor, full curve, poor fit] |  |
| CN1C(=S)SC(/[N+]([O-])=C/c2ccc(Cl)cc2)C1(C)C (stereo not given) |  | inactive: -2.03% |
| O=C1OCC/C1=C1/NCCNC1=O |  | inactive: -25.1% |
| CCCCCn1c(=O)[nH]c2c(c1=O)CCC2 |  | inactive: -11.4% |
| COc1ccc(S(=O)(=O)NC2CC(=O)N(c3ccc(C)c(C)c3)C2)cc1 (stereo not given) | inconclusive [inhibitor, single point] |  |
| CC(C)CC1Nc2ncnc(N3CCCCC3)c2N(Cc2ccccc2)C1=O (stereo not given) | active: 25.9 µM |  |
| CCOC(=O)c1c(NC(=O)c2c(C(=O)O)cccc2[N+](=O)[O-])sc2c1CCCC2 | inconclusive [inhibitor, single point] |  |

| Structure (SMILES) | Potency | activity change, negative = growth inhibition |
| --- | --- | --- |
| O=C(Nc1ccccc1OC(=O)c1ccccc1)c1ccccc1 | inconclusive [inhibitor, single point] |  |
| COCCN1Cc2cccc(C(=O)Nc3ccc(S(=O)(=O)N4CCOCC4)cc3)c2C1=O |  | inactive: -3.37% |
| COc1ccc(OC)c(-n2nnnc2SCC(=O)NCCc2ccccc2)c1 | inconclusive [inhibitor, single point] |  |
| CCn1nc(-c2ccccc2)c(-c2ccccc2)c(C(=O)Nc2ccccc2C#N)c1=O | active: 18.4 µM |  |
| Cc1ccc(N2CC(NC(=O)C(=O)c3c[nH]c4ccccc34)CC2=O)cc1C (stereo not given) |  | inactive: -7.78% |
| Cc1nn(C)c(C)c1S(=O)(=O)N1CCCC(C(=O)N2CCN(c3ccccc3)CC2)C1 (stereo not given) | active: 16.4 µM |  |
| CC(C)[C@H]1COCCS(=O)(=O)N1Cc1cccc([N+](=O)[O-])c1 | inconclusive [inhibitor, single point] |  |
| O=C(Cn1c(=O)n(Cc2ccco2)c(=O)c2c3c(sc21)CCCC3)Nc1ccccc1 | inconclusive [inhibitor, single point] |  |
| Cc1ccc2nc(C(C)O)[nH]c2c1 (stereo not given) |  | inactive: -12.7% |
| COc1cc(C(=O)NCC(=O)NCCCSc2ccccc2)cc(OC)c1OC | inconclusive [inhibitor, partial curve] |  |
| O=C(NC1CCSc2ccccc21)c1ccc(Cl)c(S(=O)(=O)N2CCOCC2)c1 (stereo not given) | inconclusive [inhibitor, single point] |  |
| CCN(C(=O)COc1ccc(C)nc1[N+](=O)[O-])C1CCS(=O)(=O)C1 (stereo not given) |  | inactive: 6.13% |
| COC(=O)[C@]12CCCCC=C1N(Cc1ccccc1)C(=O)[C@H](CC(=O)N1CCC(c3ccccc3)CC1)C2 | inconclusive [inhibitor, single point] |  |
| O=C(CSC(=S)N1CCN(c2ccccc2)CC1)Nc1nc(-c2ccccc2)c(-c2ccccc2)o1 | inconclusive [inhibitor, single point] |  |
| CCOC(=O)CSC1=C(C#N)C(c2ccco2)C(C(=O)OCc2ccccc2)=C(C)N1 (stereo not given) | inconclusive [inhibitor, single point] |  |
| CCOC(=O)C1CCCN(C(=O)c2cccc(Cl)c2)CC1 (stereo not given) |  | inactive: -16.9% |
| CCOC(=O)/C=C/C(=O)OCC(=O)N1CCN(C(=O)c2ccco2)CC1 | active: 7.31 µM |  |
| CN(c1ccccc1)c1nc(N)c([N+](=O)[O-])c(N2CCCCCC2)n1 | inconclusive [inhibitor, partial curve, poor fit] |  |
| CCn1c(=O)cc(OCC(=O)NCCCN2CCC(C)CC2)c2ccccc21 |  | inactive: -5.93% |
| COc1ccc(-c2nnc3ccc(SC(C(C)=O)C(C)=O)nn23)cc1OC | active: 18.4 µM |  |
| Cc1ccc(S(=O)(=O)NC(CC(=O)N2CCc3ccccc32)c2ccco2)cc1 (stereo not given) | inconclusive [inhibitor, single point] |  |
| CC(C)C[C@H]1CN(CCCC[C@H]2CNC(=O)C(=O)N2Cc2ccccc2)C(=O)C(=O)N1CCC1CCCCC1 | inconclusive [inhibitor, single point] |  |
| CCn1c(-c2ccc(N(C)C)cc2)nc2ccccc21 | active: 11.6 µM |  |
| Cc1ccc(C)c(S(=O)(=O)NCc2nc(N3CCCC3)c3cc(Cl)ccc3n2)c1 | inconclusive [inhibitor, single point] |  |

| Structure (SMILES) | Potency | activity change, negative = growth inhibition |
| --- | --- | --- |
| CCOC(=O)c1cc2c(=O)c3cc(C)ccc3oc2nc1C | inconclusive [inhibitor, single point] |  |
| O=C(/C=C/c1ccc(S(=O)(=O)N2CCOCC2)cc1)NC(=S)NCCCn1ccnc1 | inconclusive [inhibitor, single point] |  |
| Cc1ncc(C[n+]2csc(CCOC(=O)CC34CC5CC(CC(C5)C3)C4)c2C)c(N)n1 | inconclusive [inhibitor, single point] |  |
| CCOC(=O)C1CCN(C(=O)Cn2ncc3c4ccccc4n(Cc4ccc(F)cc4)c3c2=O)CC1 | active: 3.26 µM |  |
| O=C(CN1C(=O)NC2(CCCC2)C1=O)Nc1cc(Cl)ccc1N1CCOCC1 |  | inactive: 3.54% |
| Cc1ccc(C)n1-c1ccc(N2CCOCC2)c([N+](=O)[O-])c1 | inconclusive [inhibitor, single point] |  |
| C#CCOCCOCCOCCNc1nc(N2CCN(C(=O)C([C@@H](C)O)n3cc([C@@H](N)CCCCN)nn3)CC2)nc(N2CCN(C(=O)C([C@@H](C)O)n3cc([C@@H](N)CCCCN)nn3)CC2)n1 (stereo not given in full) |  | inactive: 12.8% |
| COc1ccccc1Cn1c(=O)c2ccccc2n2c(SCC(=O)N3CCCCC3)nnc12 | inconclusive [inhibitor, single point] |  |
| CCC(C)[C@H](NC(=O)[C@@H]1Cc2c([nH]c3ccccc23)C2c3ccccc3C(=O)N21)C(=O)NCC1CCCO1 (stereo not given in full) | inconclusive [inhibitor, single point] |  |
| C=CCc1ccccc1OCc1nc2ccccc2n1CC | inconclusive [inhibitor, single point] |  |
| Cc1csc(NC(=O)c2cc3c(s2)CCC3)n1 |  | inactive: -8.49% |
| CN=C1S/C(=C\c2ccc(N3CCOCC3)cc2C)C(=O)N1C | inconclusive [inhibitor, single point] |  |
| CC(=O)N(O)CCCCCNC(=O)CCC(=O)N(O)CCCCCNC(=O)CCC(=O)N(O)CCCCCN | inactive and active: 20.6 µM |  |
| Cc1ccc2oc3c(c(=O)c2c1)C(c1ccc([N+](=O)[O-])cc1)N(CCCN1CCOCC1)C3=O (stereo not given) | inconclusive [inhibitor, single point] |  |
| O=C(NC1CCN(Cc2ccccc2)CC1)c1ccccc1OCc1ccccc1 | inconclusive [inhibitor, partial curve] |  |
| CCN(Cc1ccccc1)C(=O)Cn1c(=O)n(-c2cccc(C)c2)c(=O)c2c1c1cc(C)ccc1n2C | inconclusive [inhibitor, full curve] |  |
| COc1cccc(C(=O)OCCN2CCOCC2)c1 |  | inactive: -13.1% |
| CC1CCCCN1CCCNc1ccc(C(CC(N)=O)NC(=O)c2ccccc2)cc1[N+](=O)[O-] (stereo not given) |  | inactive: 8.16% |
| O=C(NC1CCCCCCC1)c1c(O)c2ccccc2[nH]c1=O | inconclusive [inhibitor, single point] |  |
| COc1ccc(-c2oc3ccccc3c2C(=O)Oc2ccccc2)cc1 |  | inactive: -1.76% |
| O=C(Cn1ncc(Cl)c(Cl)c1=O)N1CCN(S(=O)(=O)c2ccc3ccccc3c2)CC1 | active: 2.91 µM |  |
| COc1ccc(-c2cc(C3CCN(CC(O)C(F)(F)F)CC3)[nH]n2)cc1 (stereo not given) | inconclusive [inhibitor, single point] |  |
